Assay results: the supplement of paper PMC10126150
Sequences with one replicate were seen in a single cluster, so their values are uncertain.

The sequences below were run on ATP (assay: switch fluorescence ratio, 500 uM ATP over buffer (Cy3 cluster intensity, sum of 5 cycles each) (fold (ratio)); higher = stronger signal-on switching upon ATP binding; sequences stand for … in TCGTCGGCAGCGTCAGATGTGTATAAGAGACAGTTTTTTTTTTTTTTTTTTTTTTTTT…TC). Conditions: aptamer strand: ATP DNA aptamer (quencher-CACCTGGGGGAGTATTGCGGAGGAAGG + anchor), 100 nM annealed; ATP concentration: 500 uM; one replicate.
Method in brief: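 The fluorescence ratio divides summed target-cycle Cy3 intensity by summed buffer-cycle Cy3 intensity for each cluster and is averaged per switch-domain sequence. Cy3-labelled switching-strand clusters on a modified Illumina MiSeq flow-cell were annealed to 100 nM quencher-labelled ATP aptamer, then imaged in selection buffer and again after 15 min with 500 uM ATP at 22 °C. Five such cycles were run, with NaOH stripping and re-annealing between them, and clusters outside 100-1000 RFU were excluded.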
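Note: ATP exposure 15 min at 22 °C before imaging.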

Row | Sequence | switch fluorescence ratio
1 | GAGGTTTTAG | 0.965
2 | GAGTAAAGAA | 0.944
3 | GAGTAAGA | 1.02
4 | GAGTACCGAG | 1.07
5 | GAGTACTTGG | 0.971
6 | GAGTAGCTAG | 0.952
7 | GAGTATAATG | 0.998
8 | GAGTATCACC | 0.987
9 | GAGTATTTTA | 0.936
10 | GAGTCACAAT | 1.06
11 | GAGTCCAGTC | 0.986
12 | GAGTCGTTGC | 0.99
13 | GAGTCTATGG | 0.963
14 | GAGTGAAGCT | 1.09
15 | GAGTGAGGTA | 0.977
16 | GAGTGCCGCC | 1.03
17 | GAGTGCTGGT | 0.955
18 | GAGTGGCCAG | 0.982
19 | GAGTGGGCCG | 1.01
20 | GAGTGGGTGC | 1.03
21 | GAGTGGTGTA | 1.02
22 | GAGTGGTTGA | 0.991
23 | GAGTGTAGTA | 1.04
24 | GAGTGTATGG | 1.02
25 | GAGTGTTTAT | 1.01
26 | GAGTTACAAG | 1.08

Row | Sequence | switch fluorescence ratio
27 | GAGTTACAGC | 1.01
28 | GAGTTACGGT | 1.01
29 | GAGTTAGATT | 1
30 | GAGTTAGGCG | 0.881
31 | GAGTTAGGTT | 0.978
32 | GAGTTATTGA | 1.01
33 | GAGTTCGTTA | 1.01
34 | GAGTTGAGCA | 0.966
35 | GAGTTGTCAG | 0.992
36 | GAGTTTAAAA | 0.999
37 | GAGTTTTGCA | 1.01
38 | GATAAAGA | 1.02
39 | GATAAAGGAT | 0.95
40 | GATAAATCCA | 1.02
41 | GATAAGTC | 1.09
42 | GATAATAGCA | 0.995
43 | GATAATGTCG | 1.02
44 | GATAATGTGC | 0.974
45 | GATAATTTT | 1.08
46 | GATACAACGT | 1.01
47 | GATACACTTA | 0.976
48 | GATACATACG | 1.53
49 | GATACCGGGC | 1
50 | GATACGG | 0.982
51 | GATACGGAAC | 1.24
52 | GATACGTGAC | 1.4

Row | Sequence | switch fluorescence ratio
53 | GATACTTAAT | 0.947
54 | GATACTTGCA | 0.982
55 | GATACTTTC | 1.02
56 | GATAGAAATC | 0.986
57 | GATAGAAGTT | 0.991
58 | GATAGAATAT | 1.01
59 | GATAGACTCC | 1.05
60 | GATAGAGGGC | 0.953
61 | GATAGATGGG | 0.942
62 | GATAGCGATG | 1.02
63 | GATAGCTCAA | 0.97
64 | GATAGGAAGC | 1.05
65 | GATAGGGACC | 1
66 | GATAGGGTCT | 1.11
67 | GATAGGTTAC | 1.01
68 | GATAGGTTGC | 0.976
69 | GATAGGTTTA | 1
70 | GATAGTAGGC | 1.06
71 | GATATAACGT | 1.01
72 | GATATCCGGG | 0.955
73 | GATATGATGG | 1
74 | GATATGGAGA | 0.968
75 | GATATTGATG | 1
76 | GATATTT | 0.976
77 | GATATTTACT | 1.04
78 | GATATTTGTC | 1.04

Row | Sequence | switch fluorescence ratio
79 | GATCAAACAA | 1.07
80 | GATCAACCGG | 1.02
81 | GATCAATAGG | 0.948
82 | GATCAGCAAC | 1.98
83 | GATCAGGATT | 0.986
84 | GATCATAAA | 0.991
85 | GATCATAGCA | 0.991
86 | GATCATCATG | 0.997
87 | GATCATCCGC | 3.09
88 | GATCCAAGAA | 1.04
89 | GATCCAAGCT | 1.01
90 | GATCCACTTC | 1.05
91 | GATCCAGCAC | 1.34
92 | GATCCGTGTG | 0.994
93 | GATCCTGGTA | 1.01
94 | GATCGAAACC | 1.08
95 | GATCGAAGGC | 0.976
96 | GATCGTAGTG | 0.95
97 | GATCGTCAT | 0.976
98 | GATCGTTCAT | 0.998
99 | GATCTAACTA | 1
100 | GATCTAGACC | 0.982
101 | GATCTAGTAT | 1
102 | GATCTATATA | 1.01
103 | GATCTCGCGG | 0.985
104 | GATCTGCAGC | 1.23

Row | Sequence | switch fluorescence ratio
105 | GATGAAAGCC | 1.04
106 | GATGAAAGTA | 0.978
107 | GATGAAATAG | 1.08
108 | GATGAACGGT | 0.997
109 | GATGAATAGA | 0.993
110 | GATGACCAGA | 0.982
111 | GATGAGGGA | 1.03
112 | GATGATTTAC | 1.07
113 | GATGATTTTT | 0.993
114 | GATGCAGGG | 1.1
115 | GATGCCAGA | 1.04
116 | GATGCCGGTA | 0.969
117 | GATGCCGTCC | 1.05
118 | GATGCGATGG | 1.72
119 | GATGCGCTAA | 0.998
120 | GATGCTATGG | 1.12
121 | GATGCTGGTA | 1
122 | GATGCTTACA | 0.961
123 | GATGCTTGAT | 1.08
124 | GATGGAAATG | 1.03
125 | GATGGACTCT | 0.994
126 | GATGGATCCT | 0.951
127 | GATGGGGTGC | 0.985
128 | GATGGGTGGG | 0.998
129 | GATGGTTCTA | 0.944
130 | GATGTACCCG | 1.07

Row | Sequence | switch fluorescence ratio
131 | GATGTCCAC | 1.03
132 | GATGTCTACA | 0.986
133 | GATGTGATCA | 1.04
134 | GATGTGGAAT | 1.36
135 | GATGTGGGAC | 1.04
136 | GATGTGTCGA | 0.964
137 | GATGTTGG | 0.965
138 | GATGTTTACG | 0.942
139 | GATGTTTCCG | 1.01
140 | GATGTTTGT | 0.981
141 | GATTAAGCCT | 1.16
142 | GATTAATAGG | 1.03
143 | GATTAATAGT | 1.02
144 | GATTACTGAT | 1.01
145 | GATTACTTAG | 1.06
146 | GATTACTTC | 1.03
147 | GATTAGAGAT | 1.03
148 | GATTAGATAT | 1.01
149 | GATTAGGGG | 0.996
150 | GATTAGGTGC | 1.13
151 | GATTAGTTAG | 0.951
152 | GATTAGTTTT | 1.04
153 | GATTATACCG | 0.996
154 | GATTCAAACT | 0.994
155 | GATTCAATCA | 0.983
156 | GATTCACGC | 1.04

Row | Sequence | switch fluorescence ratio
157 | GATTCAGCTG | 1.04
158 | GATTCAGTTT | 0.998
159 | GATTCGCTTA | 1.04
160 | GATTCGGAGA | 1.1
161 | GATTCGGTAA | 1.02
162 | GATTCGTGCT | 0.925
163 | GATTCGTGTC | 1.05
164 | GATTCTAGAT | 1.05
165 | GATTCTATCT | 0.992
166 | GATTCTCTGA | 0.991
167 | GATTCTCTTG | 0.968
168 | GATTCTGGCG | 1.04
169 | GATTGAAAAG | 1.03
170 | GATTGAAGGT | 0.972
171 | GATTGCCGTT | 1.05
172 | GATTGGGCAT | 0.974
173 | GATTGGGTCT | 0.971
174 | GATTGTACAC | 1.01
175 | GATTGTTAT | 0.988
176 | GATTGTTTGG | 0.991
177 | GATTGTTTTC | 0.999
178 | GATTTCCGGG | 1.3
179 | GATTTCGTGC | 1.02
180 | GATTTGAAAT | 0.946
181 | GATTTGGGAG | 1.01
182 | GATTTTGCGT | 0.974

Row | Sequence | switch fluorescence ratio
183 | GATTTTTAAT | 0.999
184 | GATTTTTG | 0.997
185 | GATTTTTTCC | 1.13
186 | GCAAACACTC | 1.41
187 | GCAAATGGTC | 1.09
188 | GCAACAGCA | 1.28
189 | GCAACAGTTT | 0.997
190 | GCAACCGCTA | 1.26
191 | GCAACCTTAC | 2.99
192 | GCAACGACTG | 1.05
193 | GCAACGAGGA | 1.02
194 | GCAACGGGCT | 1
195 | GCAACGTGGA | 0.999
196 | GCAACGTTT | 1.03
197 | GCAACTCTGT | 1.03
198 | GCAAGAAGTC | 1.02
199 | GCAAGATAAT | 0.955
200 | GCAAGCGTAG | 1.02
201 | GCAAGGATGG | 1
